Experimental data: PubChem BioAssay AID588591 (National Center for Advancing Translational Sciences (NCATS), 2011)
Screen size: about 390,000 compounds; about 4,700 (1.2%) were called active. This list was built around the results that the source calls inconclusive (neither active nor inactive); the mix of calls is not that of the screen. Calls follow the shape of the dose curve; as a rule, active = well fitted inhibition curve with a large enough effect; inconclusive = small, poorly fitted or top-dose-only effect, or another doubt; inactive = no such curve, though single readings can be large or run the other way. Potencies beside an inconclusive call are fits to weak or partial responses and may not hold up.

Each compound was assayed against DNA polymerase eta (Homo sapiens) (UniProt Q9Y253) (assay: qHTS for Inhibitors of Polymerase Eta). Conditions: recombinant Pol eta, fluorescent DNA replication assay; series mostly up to 114 µM.
UniProt Q9Y253, sequence (Q9Y253 whole entry, looked up): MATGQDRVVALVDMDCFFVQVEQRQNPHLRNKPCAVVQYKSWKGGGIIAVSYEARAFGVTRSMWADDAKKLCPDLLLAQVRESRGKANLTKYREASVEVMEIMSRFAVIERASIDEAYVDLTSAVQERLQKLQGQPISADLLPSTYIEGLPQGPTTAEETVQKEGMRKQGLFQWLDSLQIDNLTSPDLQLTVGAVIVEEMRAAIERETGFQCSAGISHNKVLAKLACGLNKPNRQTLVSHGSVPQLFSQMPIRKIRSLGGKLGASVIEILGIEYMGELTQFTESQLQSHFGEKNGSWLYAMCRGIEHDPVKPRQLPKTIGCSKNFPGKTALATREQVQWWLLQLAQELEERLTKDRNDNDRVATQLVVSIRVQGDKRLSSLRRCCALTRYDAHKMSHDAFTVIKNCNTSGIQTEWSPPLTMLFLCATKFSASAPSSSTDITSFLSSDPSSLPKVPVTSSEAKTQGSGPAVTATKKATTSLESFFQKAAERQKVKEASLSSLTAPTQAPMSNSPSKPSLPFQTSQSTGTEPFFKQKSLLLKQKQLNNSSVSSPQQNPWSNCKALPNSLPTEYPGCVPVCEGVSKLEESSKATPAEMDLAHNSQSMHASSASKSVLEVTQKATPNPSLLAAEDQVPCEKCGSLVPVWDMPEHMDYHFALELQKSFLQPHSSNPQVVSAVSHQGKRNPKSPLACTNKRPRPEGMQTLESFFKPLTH
Summary of the method: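 Fluorescent replication assay: 50 nM final substrate added after a 15 min room-temperature compound preincubation with 10 nM enzyme. Signal taken at 0 min and again at 10 min.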
Potency is read from the fitted curve at half-maximal effect; tags tell the direction and shape of the fitted curve.

Row | SMILES | Potency
1 | CCC(=O)Nc1nc(C)c(-c2csc(Nc3cccc(C(=O)O)c3)n2)s1 | inconclusive: 56.2 µM [inhibitor, partial curve, poor fit]
2 | O=[N+]([O-])c1ccccc1/C=N/n1c(-c2cccnc2)n[nH]c1=S | inactive
3 | Cc1cccc(NC2=NCC(=O)N2Cc2cccs2)c1 | inactive
4 | Cc1ccc(S(=O)(=O)c2nnn3c2nc(NC(C)c2ccccc2)c2sccc23)cc1 (stereo not given) | inactive
5 | O=C(COCc1cc(-c2ccc(F)cc2)on1)Nc1cccc(Cl)c1Cl | inactive
6 | COc1ccc(CCNC(=O)c2ccc3c(=O)n(Cc4ccco4)c(=S)[nH]c3c2)cc1OC | inconclusive: 28.2 µM [inhibitor, single point]
7 | C=CCn1c(SCC(=O)c2ccc(O)c(O)c2)nnc1-c1ccccc1OC | active: 25.1 µM
8 | NC(=NCc1ccco1)NC(=O)c1ccc(Cl)cc1 | inactive
9 | O=C1/C(=C\c2ccc([N+](=O)[O-])cc2)CS(=O)(=O)C/C1=C/c1ccc([N+](=O)[O-])cc1 | active: 15.8 µM
10 | Cc1ccccc1CN1CCN(c2ccc(S(=O)(=O)N3CCCC3)cn2)CC1 | inconclusive: 6.31 µM [inhibitor, partial curve, poor fit]
11 | O=[N+]([O-])c1ccc(NN=Cc2ccco2)nc1 | active: 50.1 µM
12 | Cc1ccc2c(c1)c(=O)c1c3n2CCN(C(=O)CCl)C3CC1 (stereo not given) | active: 6.31 µM
13 | O=C(Nc1cccnc1)c1c(O)c2cccc3c2n(c1=O)CC3 | inconclusive: 7.08 µM [inhibitor, full curve, poor fit]
14 | O=C1CSC(=S)N1N=Cc1ccc(Cl)s1 | inconclusive: 14.1 µM [inhibitor, full curve, poor fit]
15 | Cc1ccccc1OC(=O)CSc1nnc(-c2ccc3c(c2)OCO3)o1 | inactive
16 | Cc1ccc(C(=O)Nc2ccc(S(=O)(=O)O)c3cc(S(=O)(=O)O)cc(S(=O)(=O)O)c23)cc1NC(=O)c1cccc(NC(=O)Nc2cccc(C(=O)Nc3cc(C(=O)Nc4ccc(S(=O)(=O)O)c5cc(S(=O)(=O)O)cc(S(=O)(=O)O)c45)ccc3C)c2)c1 | active: 0.224 µM
17 | CC(=O)N1CC(=O)N(CC(=O)Nc2ccc(Br)cc2)C1=S | inconclusive: 89.1 µM [inhibitor, single point]
18 | CC12CCC(=O)N1C(C(=O)OCC(=O)Nc1sccc1C#N)CS2 (stereo not given) | inconclusive: 89.1 µM [inhibitor, single point]
19 | CCOc1ccc(OCc2cccc(C(=O)Nc3ccc(CN4CCCCC4)cc3)c2)cc1 | inconclusive: 15.8 µM [inhibitor, partial curve, poor fit]
20 | NC(=S)n1[nH]c(-c2ccc([N+](=O)[O-])cc2)c(N=Nc2cccc([N+](=O)[O-])c2)c1=O | active: 28.2 µM
21 | CCOC(=O)c1ccc2ncc(C(=O)OCC)c(NCc3ccco3)c2c1 | inconclusive: 25.1 µM [inhibitor, partial curve]
22 | CC1CCN(CCC(=O)Nc2ccc(F)c(F)c2)CC1 | inactive
23 | CCn1c(SCC(=O)Nc2cccc(F)c2)nnc1-c1cc2cc(Br)ccc2o1 | inconclusive: 20 µM [inhibitor, single point]

Row | SMILES | Potency
24 | COc1ccc(C(=O)NCC(=O)OCC(=O)NCc2ccco2)cc1 | inconclusive: 35.5 µM [inhibitor, partial curve, poor fit]
25 | CCCCN(CC)CCCNC(=O)Cn1ncc2c3ccccc3n(Cc3ccccc3F)c2c1=O | inconclusive: 63.1 µM [inhibitor, partial curve, poor fit]
26 | CC1=NN(c2ccc(C)c(C)c2)C(=O)C1C(c1cccc(O)c1)C1C(=O)N(c2ccc(C)c(C)c2)N=C1C (stereo not given) | inactive
27 | COc1cc2c(cc1OC)C(c1cccs1)N(C(=S)NC(C)C)CC2 (stereo not given) | inactive
28 | CCc1nnc(NC(=O)CSc2nnnn2-c2cccc(C(=O)OC)c2)s1 | inactive
29 | COc1ccc(NS(=O)(=O)c2cc(Br)cc3c2N(C(=O)C2CC2)CC3)cc1OC | inactive
30 | N#Cc1ccccc1NC(=O)CNc1ccccc1N1CCCCC1 | inconclusive: 8.91 µM [inhibitor, partial curve, poor fit]
31 | O=C(O)/C=C/C(=O)c1c(-c2ccccc2)[nH]c2ccccc12 | inconclusive: 70.8 µM [inhibitor, partial curve]
32 | COc1ccc(-n2ccnc(NCc3ccccc3OC)c2=O)cc1 | inactive
33 | CCc1ccc(C(=O)c2cn(CC(=O)NC3CCCCC3)c3nc(C)ccc3c2=O)cc1 | inactive
34 | CCc1cc(=O)oc2cc(C)c(CN3CCCC3)c(O)c12 | active: 22.4 µM
35 | COc1ccc(CNC(=O)CN2C(=O)COc3ccc(S(=O)(=O)Nc4ccccc4)cc32)cc1 | inactive
36 | CN(C)S(=O)(=O)c1cccc(NC(=O)COC(=O)c2ccc([N+](=O)[O-])o2)c1 | inconclusive: 31.6 µM [inhibitor, partial curve, poor fit]
37 | Fc1cccc(Nc2nc(-c3ccncc3)nc3ccccc23)c1 | active: 14.1 µM
38 | COCCNS(=O)(=O)c1cc(-c2nn(C)c(=O)c3ccccc23)ccc1C | inconclusive: 22.4 µM [inhibitor, partial curve, poor fit]
39 | Cn1c(SCC(=O)N/N=C/C=C/c2ccco2)nc2ccccc21 | active: 14.1 µM
40 | COc1ccc(CCN2C(=O)CC(C(N)=O)SC2=Nc2ccccc2)cc1 (stereo not given) | inconclusive: 17.8 µM [inhibitor, full curve, poor fit]
41 | Cc1ccc2occ(CC(=O)N(Cc3ccc(Cl)cc3)C3CCS(=O)(=O)C3)c2c1 (stereo not given) | inconclusive: 79.4 µM [inhibitor, partial curve, poor fit]
42 | Cn1cc(C2=C(c3ccc(Cl)cc3Cl)C(=O)NC2=O)c2ccccc21 | inconclusive: 100 µM [inhibitor, single point]
43 | CC(=O)NC(c1ccc(C(C)C)cc1)c1c(O)ccc2ccccc12 (stereo not given) | inconclusive: 50.1 µM [inhibitor, partial curve, poor fit]
44 | Cc1ccc(C)c(N2CCN(C(=O)Cn3ncc4c(=O)oc5ccccc5c43)CC2)c1 | inactive
45 | CC1CN(c2ccccc2)C(=O)CS1 (stereo not given) | active: 20 µM
